In the supplement of paper PMC8728848:
The other results are listed elsewhere or left out.

Legend:
Assay in all cases: glycan array binding signal (z-score within array); higher = stronger binding
Conditions in all cases: glycan notation: IUPAC condensed, linker removed
[1] = target: Gal3S(b1-3)[Fuc(a1-4)]GlcNAc
How it was run: (§1)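 The binding signal is a Z-score computed within each array and averaged over linkers. Arrays of the same protein sequence at different concentrations or buffers were also averaged together. Data originate from 3228 arrays in the Consortium for Functional Glycomics database, kept only where the protein sequence was available.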

Gal3S(b1-4)Glc = target: Gal3S(b1-4)Glc
How it was run: as §1

Gal3S(b1-4)Glc6S = target: Gal3S(b1-4)Glc6S
How it was run: as §1

Gal3S(b1-4)GlcNAc = target: Gal3S(b1-4)GlcNAc
How it was run: as §1

[2] = target: Gal3S(b1-4)[Fuc(a1-3)]Glc6S
How it was run: as §1

[3] = target: Gal3S(b1-4)[Fuc(a1-3)]GlcNAc
How it was run: as §1

[4] = target: Gal3S(b1-4)[Fuc(a1-3)]GlcNAc6S
How it was run: as §1

Gal3S4S(b1-4)GlcNAc = target: Gal3S4S(b1-4)GlcNAc
How it was run: as §1

Gal3S6S(b1-4)GlcNAc = target: Gal3S6S(b1-4)GlcNAc
How it was run: as §1

Gal3S6S(b1-4)GlcNAc6S = target: Gal3S6S(b1-4)GlcNAc6S
How it was run: as §1

Gal4S(b1-4)GlcNAc = target: Gal4S(b1-4)GlcNAc
How it was run: as §1

Gal4S6S(b1-4)GlcNAc = target: Gal4S6S(b1-4)GlcNAc
How it was run: as §1

Gal6P(b1-4)GlcNAc = target: Gal6P(b1-4)GlcNAc
How it was run: as §1

Gal6S(b1-3)GlcNAc = target: Gal6S(b1-3)GlcNAc
How it was run: as §1

Gal6S(b1-3)GlcNAc6S = target: Gal6S(b1-3)GlcNAc6S
How it was run: as §1

Gal6S(b1-4)Glc = target: Gal6S(b1-4)Glc
How it was run: as §1

Gal6S(b1-4)Glc6S = target: Gal6S(b1-4)Glc6S
How it was run: as §1

Gal6S(b1-4)GlcNAc = target: Gal6S(b1-4)GlcNAc
How it was run: as §1

Gal6S(b1-4)GlcNAc6S = target: Gal6S(b1-4)GlcNAc6S
How it was run: as §1

GalNAc(a1-3)Gal = target: GalNAc(a1-3)Gal
How it was run: as §1

GalNAc(a1-3)GalNAc = target: GalNAc(a1-3)GalNAc
How it was run: as §1

[5] = target: GalNAc(a1-3)GalNAc(b1-3)Gal(a1-4)Gal(b1-4)Glc
How it was run: as §1

[6] = target: GalNAc(a1-3)GalNAc(b1-3)Gal(a1-4)Gal(b1-4)GlcNAc
How it was run: as §1

GalNAc(b1-3)Gal = target: GalNAc(b1-3)Gal
How it was run: as §1

[7] = target: GalNAc(b1-3)Gal(a1-4)Gal(b1-4)GlcNAc
How it was run: as §1

[8] = target: GalNAc(b1-3)Gal(a1-4)Gal(b1-4)GlcNAc(b1-3)Gal(b1-4)Glc
How it was run: as §1

[9] = target: GalNAc(b1-3)Gal(a1-6)Gal(b1-4)Glc
How it was run: as §1

GalNAc(b1-3)GalNAc = target: GalNAc(b1-3)GalNAc
How it was run: as §1

GalNAc(b1-3)GlcNAc = target: GalNAc(b1-3)GlcNAc
How it was run: as §1

GalNAc(b1-4)Gal(b1-4)Glc = target: GalNAc(b1-4)Gal(b1-4)Glc
How it was run: as §1

GalNAc(b1-4)GlcNAc = target: GalNAc(b1-4)GlcNAc
How it was run: as §1

[10] = target: GalNAc(b1-4)GlcNAc(b1-2)Man
How it was run: as §1

[11] = target: GalNAc(b1-4)GlcNAc(b1-2)Man(a1-3)[GalNAc(b1-4)GlcNAc(b1-2)Man(a1-6)]Man(b1-4)GlcNAc(b1-4)GlcNAc
How it was run: as §1

[12] = target: GalNAc(b1-4)GlcNAc(b1-3)GalNAc(b1-4)GlcNAc
How it was run: as §1

GalNAc(b1-4)GlcNAc6S = target: GalNAc(b1-4)GlcNAc6S
How it was run: as §1

GalNAc(b1-6)GalNAc = target: GalNAc(b1-6)GalNAc
How it was run: as §1

GalNAc3S(b1-4)GlcNAc = target: GalNAc3S(b1-4)GlcNAc
How it was run: as §1

GalNAc3S(b1-4)GlcNAc3S = target: GalNAc3S(b1-4)GlcNAc3S
How it was run: as §1

[13] = target: GalNAc3S(b1-4)[Fuc(a1-3)]GlcNAc
How it was run: as §1

GalNAc4S6S(b1-4)GlcNAc = target: GalNAc4S6S(b1-4)GlcNAc
How it was run: as §1

GalNAc6S(b1-4)GlcNAc = target: GalNAc6S(b1-4)GlcNAc
How it was run: as §1

Glc(a1-4)Glc = target: Glc(a1-4)Glc
How it was run: as §1

[14] = target: Glc(a1-4)Glc(a1-4)Glc(a1-4)Glc
How it was run: as §1

Glc(a1-6)Glc(a1-6)Glc = target: Glc(a1-6)Glc(a1-6)Glc
How it was run: as §1

[15] = target: Glc(a1-6)Glc(a1-6)Glc(a1-6)Glc
How it was run: as §1

B1: Dectin2 (Homo sapiens), Q6EIG7 (protein)
chain: MMQEQQPQSTEKRGWLSLRLWSVAGISIALLSACFIVSCVVTYHFTYGETGKRLSELHSYHSSLTCFSEGTKVPAWGCCPASWKSFGSSCYFISSEEKVWSKSEQNCVEMGAHLVVFNTEAEQNFIVQQLNESFSYFLGLSDPQGNNNWQWIDKTPYEKNVRFWHLGEPNHSAEQCASIVFWKPTGWGWNDVICETRRNSICEMNKIYL
- glycan array binding signal (z-score) [1]: -0.072
- glycan array binding signal (z-score) (Gal3S(b1-4)Glc): -0.104
- glycan array binding signal (z-score) (Gal3S(b1-4)Glc6S): -0.135
- glycan array binding signal (z-score) (Gal3S(b1-4)GlcNAc): -0.121
- glycan array binding signal (z-score) [2]: -0.029
- glycan array binding signal (z-score) [3]: -0.172
- glycan array binding signal (z-score) [4]: -0.137
- glycan array binding signal (z-score) (Gal3S4S(b1-4)GlcNAc): -0.17
- glycan array binding signal (z-score) (Gal3S6S(b1-4)GlcNAc): -0.156
- glycan array binding signal (z-score) (Gal3S6S(b1-4)GlcNAc6S): -0.153
- glycan array binding signal (z-score) (Gal4S(b1-4)GlcNAc): -0.145
- glycan array binding signal (z-score) (Gal4S6S(b1-4)GlcNAc): -0.186
- glycan array binding signal (z-score) (Gal6P(b1-4)GlcNAc): -0.199
- glycan array binding signal (z-score) (Gal6S(b1-3)GlcNAc): -0.194
- glycan array binding signal (z-score) (Gal6S(b1-3)GlcNAc6S): -0.141
- glycan array binding signal (z-score) (Gal6S(b1-4)Glc): -0.141
- glycan array binding signal (z-score) (Gal6S(b1-4)Glc6S): -0.114
- glycan array binding signal (z-score) (Gal6S(b1-4)GlcNAc): -0.192
- glycan array binding signal (z-score) (Gal6S(b1-4)GlcNAc6S): -0.157
- glycan array binding signal (z-score) (GalNAc(a1-3)Gal): -0.162
- glycan array binding signal (z-score) (GalNAc(a1-3)GalNAc): -0.156
- glycan array binding signal (z-score) [5]: -0.213
- glycan array binding signal (z-score) [6]: -0.202
- glycan array binding signal (z-score) (GalNAc(b1-3)Gal): -0.117
- glycan array binding signal (z-score) [7]: -0.131
- glycan array binding signal (z-score) [8]: -0.193
- glycan array binding signal (z-score) [9]: -0.176
- glycan array binding signal (z-score) (GalNAc(b1-3)GalNAc): -0.17
- glycan array binding signal (z-score) (GalNAc(b1-3)GlcNAc): -0.18
- glycan array binding signal (z-score) (GalNAc(b1-4)Gal(b1-4)Glc): -0.142
- glycan array binding signal (z-score) (GalNAc(b1-4)GlcNAc): -0.143
- glycan array binding signal (z-score) [10]: -0.17
- glycan array binding signal (z-score) [11]: -0.102
- glycan array binding signal (z-score) [12]: 0.128
- glycan array binding signal (z-score) (GalNAc(b1-4)GlcNAc6S): -0.198
- glycan array binding signal (z-score) (GalNAc(b1-6)GalNAc): -0.189
- glycan array binding signal (z-score) (GalNAc3S(b1-4)GlcNAc): -0.176
- glycan array binding signal (z-score) (GalNAc3S(b1-4)GlcNAc3S): -0.173
- glycan array binding signal (z-score) [13]: -0.154
- glycan array binding signal (z-score) (GalNAc4S6S(b1-4)GlcNAc): -0.182
- glycan array binding signal (z-score) (GalNAc6S(b1-4)GlcNAc): -0.215
- glycan array binding signal (z-score) (Glc(a1-4)Glc): -0.093
- glycan array binding signal (z-score) [14]: -0.164
- glycan array binding signal (z-score) (Glc(a1-6)Glc(a1-6)Glc): -0.15
- glycan array binding signal (z-score) [15]: -0.131
